According to the supplement of paper PMC11417369:
± gives the standard deviation of the averaged measurements. The list shows a part of the results.

system: PfAP2-G AP2 domain (GST-tagged); assay: gcPBM binding intensity (ln(normalized median fluorescence intensity)); higher = stronger DNA binding
How it was run: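 Plasmodium falciparum DNA-binding domains carrying a GST tag were expressed in E. coli and applied for 1 h, at about 25 μg on average, to an Agilent 4 × 180k array. The array held primer-extended double-stranded 36-bp intergenic genomic probes together with negative controls, and binding took place in 1× PBS with 1% milk, 0.2 mg/ml BSA, 0.5% salmon testes DNA and 0.03% Triton X-100. An Alexa488 anti-GST antibody detected bound protein, and the array was scanned at 488 nm. Binding intensity is taken as the highest Masliner-normalised natural-log median intensity across replicate spots of either probe orientation.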

| Sequence | gcPBM binding intensity (ln) |
| --- | --- |
| TGAAAAAAAAAATGCACACGCATACAGATAATATGT [CACACA_site4526] | 10 ± 0.16 |
| TATACGTATACCTATACACACATATATATATATATA [CACACA_site1273] | 10.2 ± 0.28 |
| TATATTCAAAAAAATTCATTTCTGATTTTTTTTTTT [CACACA_negctrl_site1085] | 9.45 ± 0.18 |
| ATTATTGCAATTTAATGTACATAATACAAATTTGCC [XGTACX_site2729] | 11.2 ± 0.78 |
| AATGAATAAATAAACACACACACATATATATATATG [CACACA_site18] | 10.01 ± 0.085 |
| GATGAAATATCATTACGTACACAATAGTTTGTATTT [XGTACX_site5143] | 11.4 ± 0.97 |
| AACATAACAAAAAAAAAAAAAAATATATATATATAT [TGCATGCA_negctrl_site370] | 9.8 ± 0.44 |
| TATTTCACAAAAAAAAAAAAAAAAAAGAAGCAAAAA [CACACA_negctrl_site1040] | 9.8 ± 0.22 |
| GTATATTGTACCATCACACATGTAAAACATAGATGT [CACACA_site5359] | 10.8 ± 0.52 |
| ATGAATGAATACGTTTTACACACTTGAATATAATTT [CACACA_site8237] | 10.15 ± 0.057 |
| TTTTTTTTTAAGTTTGCACACATGGAAGACAAAAAT [CACACA_site2505] | 10.6 ± 0.53 |
| TCCTTAAAAAAACCTTAACACACATAAACTATAATT [CACACA_site9001] | 9.96 ± 0.042 |
| TAATACATAAATAATGTGCACATGGAAATATATCTT | 10.4 ± 0.12 |
| ACATATATATTATAAGCATGCATGAGAAAATTTTTA [TGCATGCA_site1054] | 9.83 ± 0.16 |
| AAAAAAAAAAAAAAAACACACATTTGAAGAAAAAAA [CACACA_site7389] | 10.4 ± 0.22 |
| AATTGCTTCAAAATTAAACACACACTAATAAAAAAA [CACACA_site8855] | 10 ± 0.071 |
| TATTTTATATACAGTGGTACTTTTTTTTTTTTTTTT [XGTACX_site2475] | 11.3 ± 0.9 |
| AAAAAAAAAAAAAAATCACACACAATATGAATTTAT [CACACA_site8100] | 9.92 ± 0.14 |
| TTTTCGCTTTTATAAAATTATATGAAAAAACTAAAA [XGTACX_negctrl_site139] | 9.88 ± 0.18 |

| Sequence | gcPBM binding intensity (ln) |
| --- | --- |
| ATTTATATAAAATTAAAATAATACAAATTTATTCAT [GTGCAC_negctrl_site305] | 9.675 ± 0.049 |
| TTATGGAAAAATATAACACACAATGATTTTTTATAA [CACACA_site1831] | 9.73 ± 0.16 |
| TGTAATACATGTTGTTGTACAATATCTTTAACTTTT [XGTACX_site1219] | 11.1 ± 0.73 |
| TATAACTATGGGTGTACACATTAATCGTTTTTCTTT [CACACA_site5196] | 11.5 ± 0.85 |
| TATTGTAAAAAAGCAAAATTTATCACCTCCTTATTT [CACACA_negctrl_site172] | 9.68 ± 0.11 |
| TACACAAAAATAAACACACACACATATAAATAAATA [CACACA_site6599] | 9.91 ± 0.085 |
| CCACTAAAGGCATATACACACATTTTTTAAATTGCC [CACACA_site2839] | 10.2 ± 0.13 |
| TTTTTTACATTCTGCACACAATTTATTTTTTTTTTT [CACACA_site4188] | 10.03 ± 0.028 |
| GATATGGAATATATGTGTACATATATATATATTATA [XGTACX_site1724] | 11.3 ± 0.88 |
| AAAAAAAAAAAAAATACACACACATAAAAAAAAAAA [CACACA_site8555] | 10.1 ± 0.18 |
| ATATATATATATAGAAGTACTCTTATATATTTTATA [XGTACX_site1384] | 11.3 ± 0.69 |
| TTTGTATGATCATAAAGTACTAATTTACATTCAGCA [XGTACX_site8596] | 10.8 ± 0.49 |
| CAAATTTTTAAAAATGCATGTTCATCCATCCCATAT [TGCATGCA_site467] | 10.2 ± 0.13 |
| AAAAATATATATATATTTCTTCTTTGTTAAAATGTA [CACACA_negctrl_site1459] | 9.62 ± 0.099 |
| TTTTCATTCTTATATAAATATTATTTTATATAAAAT [GTGCAC_negctrl_site674] | 9.86 ± 0.071 |
| ATATATGAAAATATATGTACACAACATATAAAATAG [XGTACX_site5132] | 11.4 ± 0.83 |
| AATTATATACCATGCACACAAATATTCATACAGGAA [CACACA_site4057] | 10.1 ± 0.16 |
| GTAGAATCAGTATTCACACATAAATGTATCCAAATG [CACACA_site5395] | 10.3 ± 0.25 |
| TTTTGGATACTTCATTTGTCCTGTTTTTTTTTTTTA [CACACA_negctrl_site399] | 10.7 ± 0.37 |

| Sequence | gcPBM binding intensity (ln) |
| --- | --- |
| TTTTAAAAAATAAAATATTATTGAAGTAAAATATGA [CACACA_negctrl_site758] | 9.605 ± 0.007 |
| TAGAAACTATGTAATGCACACCAAAATAAAATTATT [CACACA_site8578] | 10.07 ± 0.035 |
| TTTTTTTTTTTTTAAACATGCAAAATATATAATTTT [TGCATGCA_site633] | 9.77 ± 0.45 |
| TAATATATCTATAATACACACTATTCTAATCACATA [CACACA_site6731] | 9.895 ± 0.092 |
| AAAATATATCAAAACACACTCACATATAATACTTAC [CACACA_site6031] | 9.995 ± 0.007 |
| TATATACTTATATACTGTACTCATCATCTTTTAAAG [XGTACX_site6099] | 11.6 ± 0.79 |
| AACACACACATATATATATATATATATATATATATA [GTGCAC_negctrl_site573] | 9.83 ± 0.21 |
| TTTTTAATATTGTATGCATGTCGTAATAAAAAATTT [TGCATGCA_site259] | 10.2 ± 0.27 |
| ATAATAAACATATATGTACACACATATACATATATA [CACACA_site8924] | 11.3 ± 0.94 |
| TTGAACCCCACTAACACACACACGCACGCTCAGAAA [CACACA_site2983] | 10.3 ± 0.37 |
| TGCTATTTCATATTCTGTACTAAAACAAGATAATAA [XGTACX_site3852] | 11 ± 0.7 |
| ATATTAATTATAACTTGTACGTAAAAGGAAAACAAT [XGTACX_site3269] | 11.6 ± 0.95 |
| ATATACTATTAACCACATATGTGTGTTAATTTATAT [GTGCAC_negctrl_site315] | 10.1 ± 0.27 |
| ATCTACATATATTATTGTACATTGTTAAAAATTTAT [XGTACX_site7769] | 10.8 ± 0.46 |
| TTTCGTAATATGCGTGTGCACAATGAGTCCATATCT | 11.2 ± 0.81 |
| GTTCAAAATATGAACACACACATATATATATATATA [CACACA_site2057] | 10.1 ± 0.31 |
| TTTTTTTTTTTTTGGGGTACATTTTAATTAATATTA [XGTACX_site4866] | 11.4 ± 0.86 |
| TAAAATATAATTAGCACACATATATAAAATATATAT [CACACA_site4093] | 9.87 ± 0.18 |
